PMC12040169 (PLOS Biology, 2025)
The list shows a part of the results.

The compounds below were run on T1, C. trachomatis L2/434/Bu expressing GFP (CTL2-GFP). Conditions: total inclusion area; 28.5 h, 10 µM; inhibitor.
T1 construct: L2/434/Bu GFP intracellular growth in HeLa cells
Set-up: species or system HeLa; C. trachomatis total inclusion area by high-content imaging, normalised to DMSO
Method in brief: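 After bulk GFP and resorufin fluorescence reads, cells were fixed, stained with Hoechst and imaged by high-content microscopy. Inclusion area and number (GFP) stood in for chlamydial growth, nuclei count (Hoechst) for host cell viability. MICs were derived as for the bulk readout.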

Row | Compound | % of control remaining
1 | COCC(=O)N1CCC(c2cc(-c3ccc(F)cc3)n[nH]2)C1 (stereo not shown) [CBK284600] | 90.1391
2 | CCN1CCCC1CNc1c(Cl)c(Cl)nc2c1c(=O)n(C)c(=O)n2C (stereo not shown) [CBK007287] | 95.1751
3 | CCN(CC)C(=O)C1CCCN(C(=O)NCC2COc3ccccc3O2)C1 (stereo not shown) [CBK156116] | 93.5987
4 | O=C(C1CCC1)N1CCC(c2nc(C3CCCC3)no2)C1 (stereo not shown) [CBK285434] | 77.2899
5 | COc1ccc(Sc2nc3cc(Cl)c(Cl)cc3nc2NC(C)C)cc1OC [CBK093792] | 97.9998
6 | O=C(NC(=S)Nc1cc(-c2nc3ccccc3[nH]2)ccc1Cl)c1ccccc1[N+](=O)[O-] [CBK268649] | 98.5205
7 | COc1cc(CNC2CCCCC2)cc(I)c1OCC(N)=O [CBK269158C] | 113.359
8 | COc1ccc(S(=O)(=O)N2CCN(C(=O)COc3ccc(C)cc3)CC2)cc1 [CBK263354] | 105.545
9 | O=C(Cc1cccs1)Nc1cccc(C(=O)Nc2cccc(C(=O)O)c2)c1 [CBK268509] | 115.749
10 | CCCCc1nccn1CCn1ccnc1CCCC [CBK020437] | 86.4663
11 | COc1cc(C(=O)N2CCN(c3cc(C(C)C)ccc(CO)c3=O)CC2)cc(OC)c1OC [CBK007673] | 110.807
12 | COc1ccc(S(=O)(=O)Nc2c(C(=O)N3CCOCC3)sc3ncccc23)cc1OC [CBK050005] | 65.509
13 | COc1ccc(/C=C/C(=O)O)cc1S(=O)(=O)Nc1ccc(C(=O)O)cc1 [CBK261246] | 110.473
14 | Cc1ccc(N(CC(=O)Nc2ccccc2C(N)=O)S(=O)(=O)c2ccccc2)cc1C [CBK265246] | 96.988
15 | COc1ccc2nc(Nc3nc(=O)cc(CSc4nc5ccccc5s4)[nH]3)nc(C)c2c1 [CBK264854] | 96.6889
16 | COc1ccc(CCN2C(=O)CC(N3CCN(Cc4ccc5c(c4)OCO5)CC3)C2=O)cc1OC (stereo not shown) [CBK074555] | 92.9076
17 | O=C(O)c1ccccc1NC1CC(=O)N(C2CCCCC2)C1 (stereo not shown) [CBK286556] | 104.199
18 | Cc1ccc(-c2nn(CCC#N)cc2C(=O)N2CCCC2)cc1C [CBK305974] | 43.7468
19 | O=C(NC1CN2CCC1CC2)c1ncoc1-c1ccccc1 (stereo not shown) [CBK283888] | 69.2914
20 | O=c1c(Cl)nc(Cl)c(C2CCCCC2)n1Cc1ccccc1 [CBK012671] | 9.79

Row | Compound | % of control remaining
21 | O=C(C1CC1)N1CCCC1c1nc(-c2ccc(F)cc2)n[nH]1 (stereo not shown) [CBK283934] | 72.4477
22 | CCOc1ccc(C(=O)NCCC(=O)O)cc1 [CBK261725D] | 102.426
23 | O=[N+]([O-])c1ccc2c(/C=N/c3ccc(-c4nc5ccccc5s4)cc3)c(O)ccc2c1 [CBK261483] | 114.423
24 | Cc1ccc(S(N)(=O)=O)cc1NC(=O)c1ccc(Br)o1 [CBK003693] | 117.072
25 | Cc1cc(C)c2c3c(sc2n1)C(=O)N(C)CC(=O)N3 [CBK287959] | 93.7135
26 | CC(c1ccc2c(c1)OCO2)c1cc2c(cc1OCCO)OCO2 (stereo not shown) [CBK200110] | 70.1483
27 | Cc1cc(-c2cc(=O)n(Cc3ccccc3)nc2C2CC2)on1 [CBK284365] | 69.779
28 | CN1CCC(COC(=O)Nc2ccc3cc[nH]c3c2)CC1 [CBK200130] | 110.872
29 | Nc1nnc(SCC(=O)N(Cc2ccccc2F)C2CC2)s1 [CBK295179] | 125.068
30 | N#CCCCN1CCN(c2nccnc2OCCN2C(=O)CCC2=O)CC1 [CBK084299] | 98.4747
31 | Cc1c(C(=O)O)sc2ncn(CCOc3ccc(Cl)cc3)c(=O)c12 [CBK286808] | 68.2624
32 | COc1cc(Cl)cc(/C=N\NC(=O)C2C(=O)NCC2c2ccccc2)c1O (stereo not shown) [CBK262825] | 115.205
33 | Cc1ccc(-c2nccnc2OCCOc2ccccc2)cc1C [CBK106865] | 88.8536
34 | Cc1cc2cc(C(=O)NCC3CCCN(C(C)C)C3)ccc2o1 (stereo not shown) [CBK282625] | 88.3012
35 | COc1cc(OC)cc(C(=O)N[C@@H]2CC[C@@]3(c4ccc(OC)c(OC)c4)CCN(C)[C@H]3C2)c1 [CBK074242T] | 92.9781
36 | c1ccc(-c2nnc(Cn3cncn3)o2)cc1 [CBK011113] | 51.4008
37 | O=C(O)CCC(=O)Nc1ccc(Br)c2cccnc12 [CBK265186] | 110.863
38 | CN(C)S(=O)(=O)c1cc(C(=O)NCCc2c[nH]c3ccccc23)c(Cl)cc1Cl [CBK265883] | 109.328
39 | CCCCNC(=O)c1ccc2c(c1)NC(=O)C(N1CCCC1)S2 (stereo not shown) [CBK071762] | 92.2527
40 | COc1cccc(NC(=O)C(=O)NCCCO)c1 [CBK262095] | 94.7971
